Experimental data published in PubChem BioAssay AID330 (DTP/NCI, 2004).
Inconclusive results and toxic doses are left out. Certain results were filed several times, with different values. Only these are listed. An entry can have further records. Values that stand side by side are repeats in other runs, samples, wells, individuals or studies. What stands in brackets tells the records apart. The letters are not those of the source and start again with each entry.

System: P388 leukemia ip, CD2F1 mice, survival T/C
Test: NCI In Vivo Anticancer Drug Screen. Data for tumor model P388 Leukemia (intraperitoneal) in CD2F1 (CDF1) mice
Details: endpoint: median survival time, higher = longer survival
[1] = dose: 100.0 mg/kg/injection, schedule: Q01DX009 (ip), vehicle: saline
[2] = dose: 100.0 mg/kg/injection, schedule: Q01DX009 (ip), vehicle: saline with Tween-80

`CCc1c2cc(OC)c(OC)cc2cc2c3cc(OC)c(OC)cc3cc[n+]12` (tested in a mixture with another compound) was tested, and the T/C [1] was 99 % of control and 193 % of control.

For `O=c1n(CC2CO2)c(=O)n(CC2CO2)c(=O)n1CC1CO1` (stereo not given), the T/C (dose: 40.0 mg/kg/injection, schedule: Q01DX009 (ip), vehicle: saline) was 120 % of control, 350 % of control, 588 % of control.

For `CCCCCCCC(=O)OCC(=O)[C@]1(O)Cc2c(O)c3c(c(O)c2[C@@H](OC2CC(N)C(O)C(C)O2)C1)C(=O)c1c(OC)cccc1C3=O` (stereo not given in full), the T/C (dose: 0.25 mg/kg/injection, schedule: Q01DX009 (ip), vehicle: saline with Tween-80) was 118 % of control and 155 % of control and the T/C (dose: 2.0 mg/kg/injection, schedule: Q01DX009 (ip), vehicle: saline with Tween-80) was 114 % of control and 152 % of control.

In the case of `Nc1nc(SCc2cccc(Br)c2)c2ncn(C3OC(CO)C(O)C3O)c2n1` (stereo not given), the T/C [2] is reported as 108 % of control and 150 % of control.

`ClCC[N+]12CC[N+](CCCl)(CC1)C2` was tested, and the T/C (dose: 25.0 mg/kg/injection, schedule: Q01DX009 (ip), vehicle: saline) was 107 % of control, 157 % of control, 159 % of control.

With `CCOC(=O)Nc1cc2c(c(N)n1)N=C(c1ccccc1)CN2` the T/C (dose: 6.0 mg/kg/injection, schedule: Q01DX005 (ip), vehicle: saline with Tween-80) was 123 % of control and 155 % of control.

For `CC(C)CC(NC(=O)C(N)Cc1ccc(N(CCCl)CCCl)cc1)C(=O)O` (stereo not given), the T/C (dose: 16.0 mg/kg/injection, schedule: Q04DX003 (ip), vehicle: saline with Tween-80) was 90 % of control [sample A] and 157 % of control [sample B].

In the case of `COc1cc2cc(c1Cl)N1CC(=O)C(C)(O)C(=O)N(C)C(C)C(=O)OC(CC1=O)C1(C)OC1C(C)C1CC(O)(NC(=O)O1)C(OC)/C=C\C=C(\C)C2OC` (stereo not given), the T/C (dose: 8.0 micrograms/kg/injection, schedule: Q01DX009 (ip), vehicle: distilled water + alcohol) is reported as 108 % of control and 192 % of control.

`Cc1cc2cc3c(=O)[nH]c(=O)nc-3n(CC(O)C(O)C(O)CO)c2cc1C` (stereo not given) was tested, and the T/C (dose: 60.0 mg/kg/injection, schedule: Q01DX005 (ip), vehicle: saline with Tween-80) was 88 % of control, 120 % of control, 158 % of control.

With `[C-]#[N+]C1CC2CCC1C2.[C-]#[N+]C1CC2CCC1C2.[C-]#[N+]C1CC2CCC1C2.[C-]#[N+]C1CC2CCC1C2.[C-]#[N+]C1CC2CCC1C2.[C-]#[N+]C1CC2CCC1C2.[Mn]` (stereo not given) the T/C (dose: 0.75 mg/kg/injection, schedule: Q01DX009 (ip), vehicle: saline with Tween-80) was 97 % of control and 163 % of control.

In the case of `CN=C(N)NN=C(c1ccc(Br)cc1)c1ccc(Br)cc1`, the T/C (dose: 100.0 mg/kg/injection, schedule: Q04DX002 (ip), vehicle: saline with Tween-80) is reported as 121 % of control and 166 % of control.

In the case of `Cc1ccc(NSC(Cl)(Cl)Cl)cc1`, the T/C [1] is reported as 110 % of control and 151 % of control.

In the case of `COc1cc2cc3c4cc(OC)c(OC)cc4cc[n+]3c(C)c2cc1OC`, the T/C (dose: 800.0 mg/kg/injection, schedule: Q04DX003 (ip), vehicle: saline sonified) is reported as 108 % of control, 170 % of control [sample A] and 108 % of control [sample B].

`CC(=O)N(C)N=Nc1ccc(C)cc1` was tested, and the T/C (dose: 200.0 mg/kg/injection, schedule: Q01DX009 (ip), vehicle: saline) was 99 % of control and 154 % of control and the T/C (dose: 400.0 mg/kg/injection, schedule: Q01DX009 (ip), vehicle: saline) was 100 % of control and 185 % of control.

In the case of `COc1cc(N)ccc1Nc1c2ccccc2nc2ccccc12`, the T/C (dose: 25.0 mg/kg/injection, schedule: Q04DX002 (ip), vehicle: distilled water + Tween-80) is reported as 119 % of control and 165 % of control.

In the case of `[Cl][Pt+2][Cl].[NH-]C1CCCC2CCC[N-]C12` (stereo not given), the T/C [2] is reported as 90 % of control and 176 % of control.

With `COC(COC(=O)N1CCN(C=O)CC1)C1=C(N2CC2)C(=O)C(C)=C(N2CC2)C1=O` (stereo not given) the T/C (dose: 6.25 mg/kg/injection, schedule: Q01DX005 (ip), vehicle: saline) was 88 % of control, 275 % of control, 294 % of control.

`COC(C(=O)C(O)C(C)O)C1Cc2cc3cc(OC4CC(OC5CC(O)C(O)C(C)O5)C(O)C(C)O4)c(C)c(O)c3c(O)c2C(=O)C1OC1CC(OC2CC(O)C(OC3CC(C)(O)C(O)C(C)O3)C(C)O2)C(O)C(C)O1` (stereo not given) was tested, and the T/C (dose: 0.5 mg/kg/injection, schedule: Q01DX009 (ip), vehicle: saline) was 112 % of control and 173 % of control.
